Laboratory results as given in the RNAGym collection of RNA variant scans (doi:10.7554/elife.90254).
The source gives no read counts; variants with many changes may rest on few reads.

B1: LINE1-full (parent)
chain: UACGUAGGUGGUUUUCCCCUGAUAGUGCUAAGGGGGCCUGGAAGUUUGGACUGGGCAGAGCUCAACACAGCGUGGCAAAGUGGCUGUGGCUAGACUGCCUCUCUGGAUUCCUCGUCACUCAGCAGGGCAUCUCUGAGAGAAAUGCC

Variants of: B1
Assay: self-cleavage, relative activity (ratio to wild type); higher = more cleavage; in vitro, sequencing; the parent is a self-cleaving ribozyme
Variant C51U A65G G83C has a self-cleavage of 0.
G72U A92G A117G U119C showed a self-cleavage of 0.
Variant U29C A57G A79G has a self-cleavage of 0.77.
U39C U85C C95U C118U A129U gave a self-cleavage of 0.03.
U14C U15C G86A U104C showed a self-cleavage of 0.15.
Variant U85C U91A A142G has a self-cleavage of 0.
Variant A43G U91C A129U has a self-cleavage of 0.29.
With U12C U29A A69G the self-cleavage was 0.
For U13A U45C A77U C146U, the self-cleavage was 0.42.
Work on U14A U46A U85G U108C A140G yielded a self-cleavage of 0.19.
With U20A G54A A94G A141G the self-cleavage was 0.05.
Work on U9C U13C G35A A64G G88A C146U yielded a self-cleavage of 0.08.
With A22G U46G U81C the self-cleavage was 0.77.
With U23C G83A U112C A140G the self-cleavage was 0.77.
With U1A A24G A42G the self-cleavage was 0.33.
Variant A67U U109C A129U has a self-cleavage of 0.18.
In the case of A6G U12G U15G U26C G44A U96C, the self-cleavage is reported as 0.
With A50U U62A U73C A77G G97A the self-cleavage was 0.03.
Variant U9A U14C U81C has a self-cleavage of 0.25.
For U9G G72A U81C U100C A141G, the self-cleavage was 1.51.
In the case of U15C A59G U62C U102C U104A U134C, the self-cleavage is reported as 0.
For A2G A22G A79G, the self-cleavage was 0.48.
A77G U85C U109C showed a self-cleavage of 0.
Work on A31G A64G C128U yielded a self-cleavage of 0.25.
For G11A U45A U87C A141G, the self-cleavage was 0.13.
For G48A A65G A117G A141G, the self-cleavage was 0.
For A50G U87A A121C A140G, the self-cleavage was 0.08.
With U46G U100C A140U the self-cleavage was 1.61.
A57G U102C U112C gave a self-cleavage of 0.
With U39C A43U A77U A138U the self-cleavage was 0.
For U102C U115C A124G, the self-cleavage was 0.
A30G U62A G127A gave a self-cleavage of 0.08.
For U73C A77G U96A U108C, the self-cleavage was 0.
In the case of U100A A117C A142G, the self-cleavage is reported as 1.44.
For U13C A65U A138G, the self-cleavage was 0.32.
U39C G49U A69G A129G A140G showed a self-cleavage of 0.15.
A6G A24G A64U U91C A92G showed a self-cleavage of 0.
U85C U100A G122A gave a self-cleavage of 0.08.
C84A U112C A140G showed a self-cleavage of 0.05.
In the case of U13C A94G U115C, the self-cleavage is reported as 0.
For U39A U46A U62C G114C, the self-cleavage was 0.06.
For A30G G36A U39G, the self-cleavage was 0.
In the case of U13C A50G U112A A136G, the self-cleavage is reported as 2.42.
For G74A A121G A140G, the self-cleavage was 0.71.
For G41A U46C A117G, the self-cleavage was 1.38.
U12C U62C A64G G89A U96C A138G A141G showed a self-cleavage of 0.1.
U15A A59G U73C A140C gave a self-cleavage of 0.
For A77G G97A U132C, the self-cleavage was 0.14.
Work on C19U A107G U108A yielded a self-cleavage of 1.07.
For C18U U26A G58A G72U, the self-cleavage was 0.06.
With A50G U62A U73A the self-cleavage was 0.01.
With A22U G54A A136G the self-cleavage was 0.9.
In the case of A50G U73C U134C, the self-cleavage is reported as 1.41.
With G7U A92G U102C the self-cleavage was 0.
U26A A30G G44A gave a self-cleavage of 0.77.
For A43G A50U A67G A79C, the self-cleavage was 0.
With C16U G35U U62A the self-cleavage was 0.03.
In the case of A30G U46C U62C A64U A77G, the self-cleavage is reported as 0.
In the case of A124U A129U A136G, the self-cleavage is reported as 1.4.
For A42G U73C U130C, the self-cleavage was 2.76.
A50G A78U U87C U112A showed a self-cleavage of 0.34.
With U12G G54U A69G C84G U87C the self-cleavage was 0.
Variant U23C C66U U115C A124U has a self-cleavage of 0.07.
In the case of U26C U46C C111U U112C, the self-cleavage is reported as 1.28.
With A22U G55A U73C U109C the self-cleavage was 0.13.
A42G A50U U130C gave a self-cleavage of 0.56.
For C16U U29C A142G, the self-cleavage was 1.5.
C37G C61U A117G A140G showed a self-cleavage of 0.05.
U45C G72A U96G gave a self-cleavage of 0.03.
Variant U26A A43G A77G U130G has a self-cleavage of 0.88.
With A22U A78G U87A A124G the self-cleavage was 0.
For U47C A57G U104A, the self-cleavage was 1.
Variant U26C U52C A64C C84A U87A A94G U112C has a self-cleavage of 0.
U52A C84A U87G U132C showed a self-cleavage of 0.12.
In the case of A30G U47C U85C, the self-cleavage is reported as 0.84.
Variant A64U A79C U96G has a self-cleavage of 0.17.
Variant U1C A2U A117U A138G has a self-cleavage of 1.46.
Work on U9A U13C A22G U39A yielded a self-cleavage of 1.33.
U20A U104C G105A A124G gave a self-cleavage of 1.71.
Work on U52C U115G A142G yielded a self-cleavage of 1.53.
With A43G U62C A121G the self-cleavage was 0.
For C3U U104A A107G, the self-cleavage was 1.36.
In the case of U115A U130A A136G A142G, the self-cleavage is reported as 0.78.
For A42G A69G A129G, the self-cleavage was 2.63.
Work on A30G U47C U52A yielded a self-cleavage of 2.43.
U15C U45C U112A gave a self-cleavage of 1.15.
For C18U A42U A59G A94G, the self-cleavage was 0.21.
U15C G88A C120A gave a self-cleavage of 0.01.
Variant U23C U119C G137U has a self-cleavage of 1.77.
For U73G A136U A138G, the self-cleavage was 1.72.
Variant G35A A43G U46C G55C A67G U73C U119A has a self-cleavage of 0.
A43G U62C A121U showed a self-cleavage of 0.19.
With A42G C98U A129U the self-cleavage was 0.56.
Variant A43G U87A C131U has a self-cleavage of 0.12.
A24G A124U U143A gave a self-cleavage of 1.1.
For C19U U29A G70A A121U, the self-cleavage was 0.18.
U13C A24U A50G G126U U134A gave a self-cleavage of 0.78.
G10A G82A A138G showed a self-cleavage of 1.22.
Work on U14A G25A C103U G126A yielded a self-cleavage of 1.26.
In the case of U15A A69G A78G U85C, the self-cleavage is reported as 0.77.
For U62C A78G G88A A142G, the self-cleavage was 0.08.
U12C G53A A77G showed a self-cleavage of 2.06.
With A22G G105U U143A the self-cleavage was 1.54.
With U115A U130C U134G the self-cleavage was 0.3.
G7A U20A U47C showed a self-cleavage of 2.02.
A78G A79G U104A U132C showed a self-cleavage of 1.62.
G36U A42G U115C showed a self-cleavage of 0.95.
With A43G A65G A92G C111U U130C U143C the self-cleavage was 0.
In the case of U13C A24C A129C, the self-cleavage is reported as 2.3.
In the case of A59G G75U U115A, the self-cleavage is reported as 0.05.
In the case of U14A A92G U96C, the self-cleavage is reported as 0.24.
Work on C128U U132C A142G yielded a self-cleavage of 1.33.
With A94G A129G A136G the self-cleavage was 0.
For U14C A57U U81A, the self-cleavage was 0.1.
In the case of U12C U26C U39A A107G A138G, the self-cleavage is reported as 1.84.
C28U A65G U134C showed a self-cleavage of 0.06.
In the case of G4A C128U U132C A141G, the self-cleavage is reported as 0.91.
U87C G97A U115A showed a self-cleavage of 0.04.
For U52C C68A A69G, the self-cleavage was 0.06.
Work on U81A G86A A94C U112C yielded a self-cleavage of 0.05.
U1C U87C A136G showed a self-cleavage of 0.3.
Work on U9A A78U U134C yielded a self-cleavage of 0.75.
U39G A78U U134C showed a self-cleavage of 1.73.
U39C G93C U115C showed a self-cleavage of 0.
U9C U46C U112A showed a self-cleavage of 1.04.
U52C U73A A124U U143C showed a self-cleavage of 0.9.
In the case of U52A A57U A59U A67U A124G, the self-cleavage is reported as 0.07.
In the case of U12C G33A U73C A94G G126A, the self-cleavage is reported as 0.63.
With U14G U23C U85A U134C the self-cleavage was 0.
Work on U15A A77G U119G A140U yielded a self-cleavage of 1.23.
In the case of A43G U52G U96A, the self-cleavage is reported as 0.39.
G33A C123U A129U showed a self-cleavage of 1.21.
A31U A65G A67G gave a self-cleavage of 0.13.
In the case of A42G U47A U100C, the self-cleavage is reported as 1.51.
Work on A2G U39A A67G U130A yielded a self-cleavage of 0.75.
For U9A C16U U46C A78G, the self-cleavage was 0.82.
With U62C A64C G75A the self-cleavage was 0.05.
For A42G U102A U130C, the self-cleavage was 2.43.
Work on G82A U96C U104A yielded a self-cleavage of 0.09.
With U26C U62C G97A the self-cleavage was 0.02.
Variant A124C U130C A142G has a self-cleavage of 1.2.
In the case of U5A A64G U81C, the self-cleavage is reported as 0.4.
With G32U A65U A79U the self-cleavage was 0.23.
U15C U104C A142G showed a self-cleavage of 1.71.
With C56U A67G U104C the self-cleavage was 0.28.
Variant A43G G55A A124G has a self-cleavage of 0.05.
With A78G U85A G137A A138G the self-cleavage was 0.16.
U9A U20C U100C showed a self-cleavage of 2.63.
Variant U29A G32A U134A has a self-cleavage of 1.16.
For G36A G49A U62C A78G G114U, the self-cleavage was 0.01.
Variant U20G U26C C37A U62A A64U U112A C128U has a self-cleavage of 0.06.
A24G U47C A78G U81C C90U A117G gave a self-cleavage of 0.
A2G U62A A77G G88A U143C showed a self-cleavage of 0.07.
Work on A24U U39A A117G yielded a self-cleavage of 1.68.
In the case of U26C A57G U143A, the self-cleavage is reported as 0.69.
Variant U46C U73A G105U has a self-cleavage of 0.49.
For A6U A43G U52A, the self-cleavage was 1.81.
For U13C C37U G126U, the self-cleavage was 1.15.
In the case of A43G A79G U102C U119C A142G, the self-cleavage is reported as 0.
With U39C U100C C123A the self-cleavage was 2.05.
With A78G U91C A129G the self-cleavage was 0.24.
For U39C A42G U85A, the self-cleavage was 0.12.
With U14C U100C A124U the self-cleavage was 1.46.
Variant U12C U20C A140U has a self-cleavage of 1.49.
Work on A2G U85A A141G yielded a self-cleavage of 0.3.
U9C U47C U104A showed a self-cleavage of 1.59.
For U13C U20C A22G G139A, the self-cleavage was 0.61.
